Screen size: about 150,000 compounds; about 6,500 (4.3%) were called active. The shares of active, inactive and inconclusive entries below differ from those in the screen. Calls follow the shape of the dose curve; as a rule, active = well fitted inhibition curve with a large enough effect (not every such curve was filed as active); inconclusive = small, poorly fitted or top-dose-only effect, or another doubt; inactive = no such curve, though single readings can be large or run the other way. No potency is given beside an inconclusive call; the fits are too rough.
What follows are compounds tested against 15-hydroxyprostaglandin dehydrogenase [NAD(+)] (Homo sapiens) (UniProt P15428) (assay: qHTS Assay for Inhibitors of HPGD (15-Hydroxyprostaglandin Dehydrogenase)). Settings: purified HPGD, NADH fluorescence kinetic, PGE2 substrate; activity change, negative = inhibition: hits give low values.
Sequence of UniProt P15428 (P15428 whole entry, looked up): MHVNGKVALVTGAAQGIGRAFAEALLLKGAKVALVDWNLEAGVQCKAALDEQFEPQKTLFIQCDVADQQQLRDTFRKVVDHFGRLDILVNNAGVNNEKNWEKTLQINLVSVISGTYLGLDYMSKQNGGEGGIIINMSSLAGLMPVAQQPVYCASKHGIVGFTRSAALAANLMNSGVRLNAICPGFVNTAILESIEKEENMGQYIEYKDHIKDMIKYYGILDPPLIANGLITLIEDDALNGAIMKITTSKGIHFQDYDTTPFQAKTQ
Procedure, shortened: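 NADH formation kinetics: reaction with 30 uM PGE2 and 1 mM NAD+ (final), 20 nM enzyme, Tris-HCl pH 8 with Tween 20, after 15 min compound preincubation at room temperature. Fluorescence change, last versus first of five reads.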
For `Cc1ccc(C2Nc3ccc4ccccc4c3C3=C2C(=O)CC(C)(C)C3)o1` (configuration not stated), the Potency was inconclusive [inhibitor, partial curve]. In the case of `CCN=C(NCC)SC1CC(=O)N(c2cccc(OCC)c2)C1=O` (configuration not stated), the activity change, negative = inhibition is reported as inactive: -6.65%. For `CC(Sc1ccccn1)C(=O)Nc1ccccc1` (configuration not stated), the Potency was active: 28.2 µM. `CCOC(=O)Cc1c(C)nc2cc(-c3ccc(C(C)(C)C)cc3)[nH]n2c1=O` was tested, and the Potency was inconclusive [inhibitor, partial curve]. `CSc1nnc(-c2cc3c(-c4ccccc4)nn(C)c3s2)n1C` was tested, and the Potency was inconclusive [inhibitor, partial curve]. For `O=C(CSc1nc2ccccc2c(=O)[nH]1)N1CCCCCC1`, the Potency was inconclusive [inhibitor, partial curve]. `CCOc1ccc2nc(SCC(=O)N(C)C)[nH]c2c1` was tested, and the activity change, negative = inhibition was inactive: -24%. In the case of `O=S(=O)(Nc1cccc(-c2cn3cccnc3n2)c1)c1ccc(Cl)cc1`, the Potency is reported as inconclusive [inhibitor, partial curve]. For `CN(CCNC(=O)c1cc2c(=O)n(C)c3ccccc3c2n1C)Cc1ccccc1`, the Potency was inconclusive [inhibitor, partial curve]. `CCOc1ccc(-c2ccc(/C=C3/C(=N)N4C(C)=CSC4=NC3=O)o2)c([N+](=O)[O-])c1` was tested, and the Potency was inconclusive [inhibitor, partial curve]. For `C=CCn1c(C(C)NC(=O)c2ccccc2C)n[nH]c1=S` (configuration not stated), the activity change, negative = inhibition was inactive: -8.16%. In the case of `O=C(CC1S/C(=N\S(=O)(=O)c2ccccc2)N(c2ccccc2)C1=O)Nc1ccc(F)cc1` (configuration not stated), the activity change, negative = inhibition is reported as inactive: -9.23%. `CCCCc1[nH]c(=O)c(C#N)c2c1CCCC2` was tested, and the Potency was inconclusive [inhibitor, partial curve]. With `Cc1cc(C)nc(Sc2ncnc3sc4c(c23)CCC4)n1` the Potency was inconclusive [inhibitor, partial curve]. In the case of `COc1ccc(C(=O)c2cnc3ccccc3c2-c2ccccc2)cc1`, the Potency is reported as inconclusive [inhibitor, partial curve, poor fit]. For `CCC(c1nnnn1CC1CCCO1)N(CCCO)Cc1cc2cccc(C)c2[nH]c1=O` (configuration not stated), the activity change, negative = inhibition was inactive: -11%. With `CSc1nnc(C)c(/C=C/Nc2ccc(F)cc2)n1` the activity change, negative = inhibition was inactive: -15.4%. With `Cc1nc2sc3c(c2c(=O)o1)CCC3` the Potency was active: 20 µM. In the case of `Cc1ccc2nc3c(cc(C(=O)NCc4cccnc4)c(=N)n3C(C)C)c(=O)n2c1`, the Potency is reported as inconclusive [inhibitor, partial curve]. `O=C(Cn1cc2c(n1)CCCC2)Nc1ccccc1Br` was tested, and the Potency was inconclusive [inhibitor, partial curve]. For `Cc1cccc(CSCc2nnc(N)s2)c1`, the Potency was active: 28.2 µM. `COc1ccc(Nc2oc(COc3ccc(OC)cc3)nc2C#N)cc1` was tested, and the Potency was inconclusive [inhibitor, partial curve]. For `COc1cc(OC)c(C2C3=C(CCCC3=O)Nc3nc4ccccc4n32)cc1OC` (configuration not stated), the Potency was inconclusive [inhibitor, partial curve]. For `CCN(CC)c1nc(-c2ccccc2)cc(C(F)(F)F)c1C#N`, the Potency was inconclusive [inhibitor, partial curve]. `COC(=O)c1cc(Cl)c(NC(=O)c2ccc(C(C)(C)C)cc2)cc1OC` was tested, and the Potency was inconclusive [inhibitor, single point]. For `Cn1c(=O)c2nc(-c3ccccc3)oc2c2ccccc21`, the Potency was inconclusive [inhibitor, partial curve]. With `Clc1cccc(Cl)c1Cn1cnc2c(N3CCCCCC3)ncnc21` the Potency was inconclusive [inhibitor, single point]. In the case of `Cc1ccccc1C1CC(=O)Oc2cc(C)c(Cl)c(C)c21` (configuration not stated), the activity change, negative = inhibition is reported as inactive: -0.793%. `COc1ccccc1Nc1nc(N)nc(CN2CCC(Cc3ccccc3)CC2)n1` was tested, and the Potency was inconclusive [inhibitor, single point]. `CCNC(=O)CN(Cc1ccccc1)S(=O)(=O)c1ccccc1` was tested, and the activity change, negative = inhibition was inactive: -4.41%. With `c1ccc2c(c1)NC1(CCCCC1)n1c-2nc2ccccc21` the Potency was inconclusive [inhibitor, partial curve]. With `C[C@@H]1NC(=O)c2cc([N+](=O)[O-])cc(I)c2OCC[C@@H](C(N)=O)NC(=O)[C@H](CCC(=O)O)NC1=O` the activity change, negative = inhibition was inactive: -13.7%. `Nc1ccc(-c2ccc3ccccc3n2)cc1` was tested, and the Potency was inconclusive [inhibitor, partial curve]. `O=C(CC1CCS(=O)(=O)C1)NC1CCCCC1` (configuration not stated) was tested, and the activity change, negative = inhibition was inactive: -5.09%. With `CCn1ccc(=N)cc1` the activity change, negative = inhibition was inactive: -1.33%. `N=C1N=C(N)c2cc3ccccc3cc21` was tested, and the Potency was inconclusive [inhibitor, partial curve]. In the case of `CCOc1ccc(C2=CS/C(=C(\C#N)c3nnc4n3CCCCC4)N2CC)cc1`, the Potency is reported as inconclusive [inhibitor, single point]. In the case of `N#Cc1cccc(-c2nc3cnc(N4CCNCC4)nc3n(C3CC3)c2=O)c1`, the Potency is reported as inconclusive [inhibitor, full curve]. `CCCCOc1ccc(C(=O)NCC(=O)OCC(=O)N2CCN(S(=O)(=O)c3ccc(C)cc3C)CC2)cc1` was tested, and the activity change, negative = inhibition was inactive: -0.54%. With `CCOc1ccc2[nH]c(=O)c(C(c3nnnn3Cc3ccco3)N3CCCC(C)C3)cc2c1` (configuration not stated) the Potency was inconclusive [inhibitor, partial curve]. With `CCn1c(SCC(=O)O)nnc1C1CCCCC1` the activity change, negative = inhibition was inactive: -1.21%. In the case of `CCCCC1(C)Nc2ccccc2-c2nc3ccccc3n21` (configuration not stated), the Potency is reported as inconclusive [inhibitor, partial curve]. With `COC(=O)c1nc2n(n1)C(c1ccccc1OC)C1=C(CCCC1=O)N2` (configuration not stated) the Potency was inconclusive [inhibitor, partial curve]. With `Cc1nc(N2CCC(C)CC2)c2c(C)c(C(=O)O)sc2n1` the Potency was active: 20 µM. For `Cc1cc(C)n2c(SCc3ccc(Cl)cc3Cl)nnc2n1`, the Potency was inconclusive [inhibitor, partial curve]. `Cc1cc(SCCC(=O)O)nc2c(C)cccc12` was tested, and the Potency was inconclusive [inhibitor, partial curve, poor fit]. For `Cc1ccnc(NC(=O)COC(=O)C2COc3ccccc3O2)n1` (configuration not stated), the Potency was inconclusive [inhibitor, partial curve, poor fit]. `CC(C)(C)OC(=O)N/N=C\C=C\c1ccc2c(c1)OCO2` was tested, and the Potency was active: 15.8 µM. With `COCCOC(=O)C1=C(C)NC(=O)NC1c1cn(-c2ccccc2)nc1-c1cccs1` (configuration not stated) the activity change, negative = inhibition was inactive: -4.12%. For `COCCn1nnnc1C(c1cc2cc(C)cc(C)c2[nH]c1=O)N1CCN(c2ccccc2F)CC1` (configuration not stated), the Potency was inconclusive [inhibitor, single point]. `Cc1sc2nc(-c3cccnc3)nc(Cl)c2c1-c1ccccc1` was tested, and the Potency was inconclusive [inhibitor, partial curve]. With `N#Cc1nc(-c2ccccc2F)oc1N1CCCC1` the Potency was inconclusive [inhibitor, partial curve]. With `COCCNC(=O)c1ccc2c(c1)ncn2-c1ccc(F)c(F)c1` the Potency was active: 2.51 µM. With `CC(C)(C)NC(=O)c1ccncc1` the activity change, negative = inhibition was inactive: -1.15%. `O=C(NCCc1ccccc1)c1nc2c(nnn2Cc2ccccc2Cl)c(=O)[nH]1` was tested, and the Potency was active: 7.94 µM. For `CCOc1ccc(CN2CCN(c3cc(C)nc4c5c(C)cc(C)nc5nn34)CC2)cc1`, the Potency was inconclusive [inhibitor, partial curve]. `COc1ccc(-c2ccc(-c3nnc(Cc4ccc(OC)c(OC)c4)o3)cc2)cc1` was tested, and the Potency was inconclusive [inhibitor, partial curve]. In the case of `CCN1CCN(Cc2c(O)ccc3c2O/C(=C\C=C\c2ccccc2OC)C3=O)CC1`, the Potency is reported as inconclusive [inhibitor, single point]. `O=c1c2c(nc(NCCO)n1CC1CCCCC1)-c1ccccc1CC21CCCC1` was tested, and the Potency was inconclusive [inhibitor, partial curve]. In the case of `CCOc1ccccc1-n1c(SCC(=O)NC)nnc1-c1ccco1`, the activity change, negative = inhibition is reported as inactive: -5.05%. For `COc1ccc2nc(-c3ccco3)c(-c3ccco3)nc2c1`, the Potency was inconclusive [inhibitor, partial curve]. With `O=C(COc1cccc(F)c1)Oc1ccc(C(=O)c2ccccc2)cc1` the Potency was active: 7.94 µM. In the case of `COc1cc2c(cc1OC)C1=NC(=O)CN1C(SCc1ccccc1C)=N2`, the Potency is reported as inconclusive [inhibitor, partial curve]. `CC1(C)CC(=O)C(N=Nc2ccc3ncsc3c2)=C(O)C1` was tested, and the activity change, negative = inhibition was inactive: -23.1%. With `CCCCN1C(=O)Nc2ccccc2S1=O` (configuration not stated) the Potency was active: 15.8 µM. For `COC(=O)c1ccccc1NC(=O)COC(=O)CSCC(=O)N1CCOCC1`, the activity change, negative = inhibition was inactive: 5.92%. `CN(C1CCCCC1)S(=O)(=O)c1ccc(NC(=O)Cn2nc(-c3ccc(F)cc3)ccc2=O)cc1` was tested, and the activity change, negative = inhibition was inactive: -14.8%. With `CCOC(=O)c1c(-c2ccc(Cl)cc2)cn2ccccc12` the Potency was inconclusive [inhibitor, partial curve]. For `O=c1c2cc(-c3ccccc3)sc2ncn1-n1cccc1`, the activity change, negative = inhibition was inactive: -4.77%. `Cc1ccc(-c2ccc(CCC(=O)O)n2Cc2ccco2)cc1` was tested, and the Potency was inconclusive [inhibitor, partial curve]. In the case of `CC(=O)N1CSCC1C(=O)N1CCN(c2ccc(N3CCOCC3)nn2)CC1` (configuration not stated), the Potency is reported as inconclusive [inhibitor, partial curve]. For `COc1cc(/C=N/NC(=O)c2cccs2)ccc1OCc1ccccc1`, the Potency was inconclusive [inhibitor, single point].
% is scaled to controls: 0 for no effect and ±100 for the full control effect; potency is read from the fitted curve at half-maximal effect; tags tell the direction and shape of the fitted curve.
